The text below walks through data of ChEMBL document CHEMBL4888484, “Replenishing the malaria drug discovery pipeline: Screening and hit evaluation of the MMV Hit Generation Library 1 (HGL1) against asexual blood stage Plasmodium falciparum ,using a nano luciferase reporter read-out” (2022).

Out of some 150,000 compounds screened, about 540 (0.36%) showed an effect of 50% or more. Some of the results follow.

This assay has as its system Plasmodium falciparum. Put plainly: Primary screen in NF54 nanoGlo assay, in single point, at 2uM, 72h; a lower Z score goes with more inhibition. Format: functional, Erythrocyte. As to conditions: timepoint 72 hour.
For the compound `CS(=O)(=O)CCC(=O)N1CCC(F)(F)CC1`, the “% Inhibition” value is 3% and the Z score was -0.58.

On to `CCN1CCNC(=O)[C@@H]1CC(=O)NCc1ncc2c(n1)CCC2`, for which the “% Inhibition” value is -6% and the Z score amounted to 1.19.

Regarding `COc1cc(CNS(=O)(=O)N(C)C)ccn1`, the “% Inhibition” value is given as -6% and the Z score worked out at 1.13.

Take `CC(C(=O)O)c1cccc(NC(=O)C(C)c2cccs2)c1` (stereo unspecified): the “% Inhibition” value came out at 3% and the Z score was -0.53.

Consider `C[C@@H](C(=O)NCc1ccccc1)n1c2ccccc2c2cn[nH]c(=O)c21`, for which the “% Inhibition” value is 8% and the Z score is recorded as -1.22.

As for `CCS(=O)(=O)N1CCCc2cc(NS(=O)(=O)Cc3ccc(C)cc3)ccc21`, the “% Inhibition” value stood at 20% and the Z score was -2.55.

As to `Cc1cccc(NC(=O)N2CCCN(c3nc(Cc4ccccc4)nc4c3c(C)nn4-c3ccccc3)CC2)c1C`, the “% Inhibition” value was 14% and the Z score was -1.51.

Regarding `CC1CCN(C2(CN)CCCCC2)CC1`, the “% Inhibition” value is on record as 0% and the Z score is reported as 0.07.

With `CO[C@H]1CCOC[C@@H]1NC(=O)c1cc2cc(C)c(C)cc2o1`, the “% Inhibition” value was -13% and the Z score is on record as 1.53.

Take `Cc1nc(C)c(-c2cc(F)ccc2OC[C@H]2CCOC2)s1`: the “% Inhibition” value is 0% and the Z score was determined as 0.02.

As to `Cc1ccc(CN2CCC[C@H](c3nnc(Cn4cccn4)n3C)C2)c(F)c1`, the “% Inhibition” value is recorded as -17% and the Z score amounted to 2.16.

With `COc1ccc(CCc2nc(NC(=O)c3ccccn3)n[nH]2)cc1`, the “% Inhibition” value was -3% and the Z score is on record as 0.4.

Turning to `COc1ccccc1[C@H]1CN(Cc2cccc3cccnc23)C[C@@H]1C(=O)O`, the “% Inhibition” value is reported as -7% and the Z score is 1.17.

With `Cc1cc(C)cc(NC(=O)Cc2nc(C)c(C(=O)NCc3ccccc3)s2)c1`, the “% Inhibition” value came to 44% and the Z score is given as -5.63.

For the compound `CCCn1cnnc1CN(C)C(=O)NCc1ccc2nonc2c1`, the “% Inhibition” value was -17% and the Z score is reported as 1.85.

On to `Cc1ccc(N2CCC(CNC(=O)c3ccoc3)CC2)nn1`, for which the “% Inhibition” value was -10% and the Z score is 1.61.

`CC(C)COC(=O)c1nc2ccccc2nc1Nc1ccc2c(c1)OCCO2`: the “% Inhibition” value was 8% and the Z score is reported as -0.98.

Turning to `CC(C)OCc1cccc(-c2cc(C(=O)O)c(=O)n(C3CC3)c2)c1`, the “% Inhibition” value was -2% and the Z score amounted to 0.21.

For `CCCCc1nc(C)cc(NCCNc2nc(N)nc3[nH]cnc23)n1`, the “% Inhibition” value is on record as -15% and the Z score is recorded as 2.18.

For `O=S1(=O)COCCN1CCOCc1ccccc1`, the “% Inhibition” value was -5% and the Z score is 0.77.

Turning to `CN(Cc1ccccc1)C(=O)[C@H]1CCC[C@H]1NC(=O)c1ccncc1`, the “% Inhibition” value was 8% and the Z score is on record as -1.06.

On to `CC1CCCC(C)N1C(=O)c1ccccc1NC(=O)C1CCCC1` (stereo unspecified), for which the “% Inhibition” value was -10% and the Z score stood at 1.24.

For the compound `Cn1ccc2cc(CCNC(=O)C(N)=O)ccc21`, the “% Inhibition” value is -6% and the Z score amounted to 1.08.

For the compound `CC(C)(Oc1ccc2c(c1)CCC2)C(=O)NCCc1nc(O)cc(O)n1`, the “% Inhibition” value is 4% and the Z score is listed as -0.52.

In the case of `O=C(Nn1cnnc1)c1cccc2ccccc12`, the “% Inhibition” value is reported as -10% and the Z score is 1.25.

As to `CCc1ccc(CN(C)CC(=O)Nc2cnn(C)c2C)nc1`, the “% Inhibition” value is on record as -3% and the Z score came out at 0.46.

Take `Cc1cc2nc3n(c(=O)c2n1CC(=O)NCCc1ccc(Cl)cc1)CCCCC3`: the “% Inhibition” value is recorded as -5% and the Z score is given as 0.55.

In the case of `COc1ncnc2c1ccc(=O)n2CCCO`, the “% Inhibition” value is on record as -10% and the Z score came to 1.7.

In the case of `Cc1ccc(/N=C(\Nc2ccc(C)cc2)[C@@H](C)CN(C(=O)c2ccccc2)c2ccc(C)cc2)cc1`, the “% Inhibition” value is on record as 4% and the Z score is -0.46.

Regarding `O=C1[C@@H]2Cc3c([nH]c4ccccc34)CN2C(=O)CN1Cc1ccc(Cl)cc1`, the “% Inhibition” value is given as -8% and the Z score is given as 1.02.

For `COc1ccc(NC(=O)c2cc(C)n(Cc3ccco3)c2C)cc1S(=O)(=O)N1CCOCC1`, the “% Inhibition” value is -15% and the Z score worked out at 2.34.

As for `COc1ncccc1C(=O)Nc1nnc[nH]1`, the “% Inhibition” value came to 6% and the Z score is listed as -0.92.

In the case of `O=C(C(c1ccccc1)c1ccccc1)N1CC[C@H](S(=O)(=O)c2ccc(Cl)cc2)C1`, the “% Inhibition” value amounted to 7% and the Z score is reported as -1.13.

For the compound `CC1CCN(CCCS(C)(=O)=O)C1c1cccc(F)c1` (stereo unspecified), the “% Inhibition” value was 0% and the Z score is 0.07.

`Cc1ccc(N(C)S(=O)(=O)c2cc(-c3nc(C)cs3)sc2C)cc1`: the “% Inhibition” value is -2% and the Z score was 0.2.

On to `Cc1noc(C2(O)CCN(C(=O)C3CCCN3c3ccccc3)C2)n1` (stereo unspecified), for which the “% Inhibition” value is reported as -6% and the Z score amounted to 0.66.

In the case of `Cc1c(C(C)C)nc(N)c(C#N)c1-c1c[nH]cn1`, the “% Inhibition” value is listed as 5% and the Z score is listed as -0.99.

For the compound `Cc1cccc(Cn2cnc3c2c(=O)n(C[C@H]2CCCO2)c(=O)n3-c2ccc(F)cc2F)c1`, the “% Inhibition” value is reported as -21% and the Z score is on record as 2.08.

As for `CCN1CCN(C[C@@H]2CN(Cc3cccc(C(F)(F)F)c3)C[C@@H]2CO)CC1`, the “% Inhibition” value is -1% and the Z score amounted to 0.23.

Consider `Cc1noc(C)c1S(=O)(=O)N1CCCCCCn2c(nnc2-c2ccc(F)cc2)CC1`, for which the “% Inhibition” value is reported as -7% and the Z score was 0.87.

Regarding `OCC1CCCCCC1NCc1ccon1` (stereo unspecified), the “% Inhibition” value is on record as 4% and the Z score is -0.51.

As for `Cn1ncnc1CCNc1cc(-c2ccccc2F)nc2ccnn12`, the “% Inhibition” value is listed as -5% and the Z score amounted to 0.61.

Regarding `CC(C)c1noc(CNC2CCOC2c2ccc(Cl)c(F)c2)n1` (stereo unspecified), the “% Inhibition” value is listed as -6% and the Z score was 0.87.
